Results from the supplement of paper PMC11417369.
The list shows a part of the results.

system: PfSIP2 AP2 domain 1 (GST-tagged); test: gcPBM binding intensity (ln(normalized median fluorescence intensity)); higher = stronger DNA binding
In short: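 Binding intensity is defined as the maximum Masliner-normalised natural-log median intensity across replicate spots for either probe orientation. It was measured on an Agilent 4 × 180k array of primer-extended double-stranded 36-bp intergenic genomic probes and negative controls, to which GST-tagged P. falciparum DNA-binding domains made in E. coli were applied for 1 h in 1× PBS with 1% milk, 0.2 mg/ml BSA, 0.5% salmon testes DNA and 0.03% Triton X-100. Detection was by Alexa488 anti-GST antibody and scanning at 488 nm.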

Sequence	gcPBM binding intensity (ln)
TACACTTTTTATGAAGTGCATGTATAGCTCTTAAAA [GTGCAC_site9595]	7.9
CATTATTCATTTTGGATGCACTGACAGAAAAATGGT	9.22
ATGCTCAGGAAAACATGTACAAAATTATTTGTTATA [XGTACX_site4306]	6.9
AGTTTTTATAAAAATAGTACATATTTATTAATCTGT [XGTACX_site5881]	6.89
TTTTGTGCTTAAAAAAGTACAAAATATAAAAAAAAT [XGTACX_site7876]	7.18
TGCAGTCTGGAGAAACGTACACAGTATCTGGTAACC [XGTACX_site2543]	6.94
CCCACAGACGGACACACACACACACCGACACATATA [CACACA_site4356]	7.51
AAAATTGAACCTGACAAGGTATTTTATTATTTATTA [TGCATGCA_negctrl_site181]	6.48
TTCTATTTTAATATCTGTACATAATAAAGATCCATT [XGTACX_site1142]	7.17
CATATATAAAAAAACACACACATATATATATATATA [CACACA_site1195]	9.11
ACATAAATATAAACGTGTACATATATAAATATATAT [XGTACX_site7293]	7.26
ATTTTTTTTTTTTATAGTGGATCCACATTTGCCATT [CACACA_negctrl_site1284]	6.79
ATATATTTTAATTGTTGTACATATTAAATAAATAGG [XGTACX_site2311]	7.14
TATATTTTATATATGGTGCAACTTTTATTTAAATAA	10.6
TTACAAGTAAAAGGTACACACATTATAAATACAAAT [CACACA_site4752]	7.15
AAAATTAAACTCACACCACACACAAAAAAAAAAAAA [CACACA_site8131]	6.91
AAGAAAGACATTACGTGTACCAAACAACCTACCAAC [XGTACX_site4219]	7.07
ATGTATATGTCTATATGTACTTATATTTTATTTTTT [XGTACX_site5902]	6.95
TGTTTTATCTTATATGCACACGATAAAAAAAAAAAA [CACACA_site2674]	8.21
AAAAAAAAAAAAATCACACATAATATAGAATATGTA [CACACA_site4993]	6.9
ATATATATATATATAACACACGCAAAAAAATTAAAT [CACACA_site8395]	9.57
AACTTAAAAAATAAATGTACATAAATATAAACATAT [XGTACX_site2987]	7.04
TATTTAAATTTTAAGTGTACATATTTATTTATATCT [XGTACX_site6545]	7.09

Sequence	gcPBM binding intensity (ln)
TCACTATAATAATTTACACACATTTTAAGAAAATGT [CACACA_site3530]	7
AAAATGAATAAAAATACACACATATCTGTTATTCTC [CACACA_site5474]	6.76
GAATATTAATTCATACGTACTTATATATAAGTATAT [XGTACX_site3707]	7.09
TATAAAAATGGGCACACACACACATATATATATTTA [CACACA_site1527]	7
ATTTTTTTTTTTTTTTTTTTTTTATTCTTGTAATCT [CACACA_negctrl_site1039]	6.77
CCTTTTTATCTTTTTGTGCACAGACCTTTTTTAAAT	9.75
ATGTAAGTTGTGCATTCACACACATATATATATATA [CACACA_site9086]	9.26
ATATAATAATAAAGACGTACAAATGTATATATATAC [XGTACX_site3123]	7.07
AAAAAAAAAAAAAACATACACACAATAAAATAGGGG [CACACA_site2398]	7.49
CATTTTTTATTTCCTTGTACGAATAAAATATATTTA [XGTACX_site6844]	7.13
AATTTAATATAATGCACACATAAAACAAAAACAAAA [CACACA_site529]	7.62
TACGTAAATGTGTGTGTGCACGTTATATATTAATAT [GTGCAC_site9976]	9.21
TATTATCGTTCTCATACACACAAAATATACATACAC [CACACA_site2643]	7.37
TTATAATAATATAATACATGCATATATATTTAAATA [TGCATGCA_site903]	6.9
ATAAACATATAAAAAGTGCATATTCATATATCTACT	8.7
ATGGCCTCATTTGGGACACACAACATAAAATATATA [CACACA_site753]	6.88
AATACACTAAACAAAAGTACAAAAATATTCTACAAA [XGTACX_site5162]	6.95
AAATATATTTTATGTACACACAAAATTAAGGGATAT [CACACA_site4881]	7.36
TGTTAATTATAAATTTGTACTTATTTTTACAAAATA [XGTACX_site6598]	6.97
GTAAAATATATAAAATGTACATATATTATATATATA [XGTACX_site489]	7.96
CATTTAAAAGATAAAACACACATACTAATAAAAAAC [CACACA_site5417]	7.24
TTTCTTTATTAAAATATTTTACATATATAATATACG [TGCATGCA_negctrl_site564]	7.21
ACATATATTATTATATGTACATATATTAATTATATA [XGTACX_site3400]	7.28

Sequence	gcPBM binding intensity (ln)
ATCATTTTTAAAGGAACACACAAAAAAAATTAAAAT [CACACA_site4878]	7
ACTCTCTTATATTAAACACACATATATATCTGTATA [CACACA_site5489]	7.4
CTTCTCTTTTTTATCATGCACTTTTTGTATAATAAT [GTGCAC_site9834]	8.7
ATTTATATGTGGAGCAGTACGCACTCTCACAATTAA [XGTACX_site7252]	8.2
TAAAAATTATATATCACACATATATGTCAGTATACA [CACACA_site4624]	6.91
GATGTTCATCACTACACACACAAAGAAATATATATA [CACACA_site2684]	7.38
AAAGAAAAAAAATATAAAAAATAAAAAATAAAACAA [CACACA_negctrl_site374]	6.81
TTGTATTTCCTTAGGAGTACACATAAATAAGTAAAT [XGTACX_site6677]	7.42
TAATATATGTATATATGTACATATAAATGTTATAGA [XGTACX_site2721]	7.05
TTGGTATAAAATTATAGTACATAAGGTAAATATAAA [XGTACX_site4698]	7.09
GAAAAGCATAGATGCACACATATATATATATATATA [CACACA_site2169]	9.6
GTGTTAATTTTAAATTGTACAAAATTTATATGATTT [XGTACX_site348]	7.19
ATATACTTTTTTTTTTTTTTTTTAACGTTATTTATG [CACACA_negctrl_site1277]	6.91
AAAATATATGAAAACAGTACATATAAAAATTAAAAA [XGTACX_site2594]	6.88
TTACACATATATATAAATATATATAAATATATATAT [CACACA_negctrl_site150]	8.19
ATTTTTATACGTTTTTTTTTTTTTTTTTTTTATTTA [CACACA_negctrl_site1142]	6.71
ATTAATTTTGGTTCATGTACATAAGAAATAAACTCT [XGTACX_site4534]	7.23
TATTTGTTTGAATTTTTTTTTTTTTTTTTTTATGTG [CACACA_negctrl_site966]	6.78
TACAGACAGAAATGCACACACATATATATATATATA [CACACA_site2283]	9.26
TTTATATTTCAATTTTGTGCTTCGCAAATTGAGAGG [TGCATGCA_negctrl_site327]	6.77
CACTACATTATGTCATAAATGCATACATAAACATAT [GTGCAC_negctrl_site513]	7.2
TATAACATAATATAGACACACACATGTACTTATGCC [CACACA_site8547]	7.08
AATGTTTTTTTTTTTTTTTTTTTTTATTTATTGTTA [CACACA_negctrl_site505]	6.85

Sequence	gcPBM binding intensity (ln)
ATCAAATAATAGCAAACACACAAAAAATAAAAAAAA [CACACA_site4146]	6.91
ATTTTTTGGAAAAGAAGTACAATGGATTTATACGTT [XGTACX_site891]	7.23
TAACATATAATATTATGTACATATATACATATATAA [XGTACX_site7467]	7.02
AAAAAATCACGACACACACACACACTAAAAAAAAAA [CACACA_site6792]	7.18
TTTAAATAATCTAGGTGTACTTTCCTTTATAAATGT [XGTACX_site7859]	6.9
AGAATACATATATGAACACACAGAGTTTTAAAAAAT [CACACA_site2735]	6.88
TATTTCAATATATACCTTTGCTTTTTTAATATACTT [XGTACX_negctrl_site556]	6.96
AATATAAATAAAAACACACACAATGGTACCTATATA [CACACA_site7688]	7.02
TCAATATAAATTAGTTGTACAGTTTTTTTTAATTAT [XGTACX_site6358]	6.95
AAGAATTATATATTCACACAAAAAAAAAGTAAAAGA [CACACA_site5335]	7.17
TATAATATATATATATGTACATATTATTTACATATA [XGTACX_site7312]	7.29
TTTTAACATAGAAGTACACACATATAATCAATCATA [CACACA_site5313]	7.17
AAAAAAAAAAAAAAGAGTACATTTATTTATATATCT [XGTACX_site2381]	7.16
TGTTTAACACATGTTTCAAACAAAAAAAAAAAGACA [CACACA_negctrl_site1356]	7.08
AATATATTAAATCTTACACACTAAAAAATATGTAAC [CACACA_site4325]	6.83
TTTTAAATTTTTTAAAGTACACGTCGAAAAGGTATA [XGTACX_site76]	7.93
TTAATTTTTGAAGGTACACACTAATATATTAAATAT [CACACA_site4791]	7.11
CTTTTAATTATAAAATGTACTTAAAAATAATAATAC [XGTACX_site635]	7.16
AAAACAGACAAACACACACACACATATATATATATA [CACACA_site3393]	9.42
TTATCCCCCTATCATTGTACATTAATACAAACTAAA [XGTACX_site5630]	8.01
